From the supplement of paper PMC6089552
Hit rate of the full screen: of about 3,200 compounds, about 300 (9.4%) showed activity. This is a selection; strong and weak results do not stand in their true shares.

Test system: A673/TR/shEF
Test: cell viability (LOESS-normalised, relative to median of negative controls) (log2 ratio); higher = more viable cells (less compound effect), active = hit call of the paper (over 3 MAD below the median)
Conditions: treatment time: 72 h
Method in brief: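 Doxycycline, present or absent from 24 h before compounds, was used to induce EWS-FLI1 shRNA knockdown in A673/TR/shEF Ewing sarcoma cells at 1,500 per well in 384-well plates. Cells then received library compounds at two or more concentrations, or DMSO controls, for three days. Viability was measured by CellTiter-Glo luminescence on an Envision reader, and per-plate LOESS correction, division by the negative-control median and log2 transformation followed.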

[1] = 0.25 µM, library screen: screen1, EWS-FLI1 expression: high (no doxycycline)
[2] = 0.25 µM, library screen: screen1, EWS-FLI1 expression: low (doxycycline-induced shRNA knockdown)
[3] = 0.25 µM, library screen: screen2, EWS-FLI1 expression: high (no doxycycline)
[4] = 0.25 µM, library screen: screen2, EWS-FLI1 expression: low (doxycycline-induced shRNA knockdown)
[5] = 2.5 µM, library screen: screen1, EWS-FLI1 expression: high (no doxycycline)
[6] = 2.5 µM, library screen: screen1, EWS-FLI1 expression: low (doxycycline-induced shRNA knockdown)
[7] = 2.5 µM, library screen: screen2, EWS-FLI1 expression: high (no doxycycline)
[8] = 2.5 µM, library screen: screen2, EWS-FLI1 expression: low (doxycycline-induced shRNA knockdown)
[9] = 0.103 µM, library screen: screen3, EWS-FLI1 expression: high (no doxycycline)
[10] = 0.103 µM, library screen: screen3, EWS-FLI1 expression: low (doxycycline-induced shRNA knockdown)
[11] = 0.308 µM, library screen: screen3, EWS-FLI1 expression: high (no doxycycline)
[12] = 0.308 µM, library screen: screen3, EWS-FLI1 expression: low (doxycycline-induced shRNA knockdown)
[13] = 0.926 µM, library screen: screen3, EWS-FLI1 expression: high (no doxycycline)
[14] = 0.926 µM, library screen: screen3, EWS-FLI1 expression: low (doxycycline-induced shRNA knockdown)
[15] = 2.8 µM, library screen: screen3, EWS-FLI1 expression: high (no doxycycline)
[16] = 2.8 µM, library screen: screen3, EWS-FLI1 expression: low (doxycycline-induced shRNA knockdown)
[17] = 8.3 µM, library screen: screen3, EWS-FLI1 expression: high (no doxycycline)
[18] = 8.3 µM, library screen: screen3, EWS-FLI1 expression: low (doxycycline-induced shRNA knockdown)
[19] = 25 µM, library screen: screen3, EWS-FLI1 expression: high (no doxycycline)
[20] = 25 µM, library screen: screen3, EWS-FLI1 expression: low (doxycycline-induced shRNA knockdown)

Measured: cell viability (log2)

C[C@]12CCC(=O)C(O)=C1CC[C@@H]1[C@@H]2CC[C@]2(C)C(=O)CC[C@@H]12
inactive: 0.025 µM, library screen: screen2, EWS-FLI1 expression: high (no doxycycline) 0.156 | 0.025 µM, library screen: screen2, EWS-FLI1 expression: low (doxycycline-induced shRNA knockdown) 0.108 | [1] -0.025 | [2] -0.0184 | [3] 0.125 | [4] 0.0758 | [5] 0.0197 | [6] -0.0205 | [7] 0.0374 | [8] 0.0442 | 25 µM, library screen: screen2, EWS-FLI1 expression: high (no doxycycline) 0.0777 | 25 µM, library screen: screen2, EWS-FLI1 expression: low (doxycycline-induced shRNA knockdown) 0.0432

c1ccc(C2CC2)c(OCC2=NCCN2)c1
inactive: [3] 0.106 | [4] 0.0539 | [7] 0.0546 | [8] 0.0982

NCC(CP(=O)(O)O)c1ccc(Cl)cc1 (configuration not stated)
inactive: [3] 0.17 | [4] 0.0448 | [7] 0.0538 | [8] 0.0365

N[C@@H](Cn1cc(I)c(=O)[nH]c1=O)C(=O)O
inactive: [3] 0.182 | [4] 0.0737 | [7] 0.187 | [8] 0.102

CNCC(O)c1ccc(O)cc1 (configuration not stated)
inactive: [3] 0.178 | [4] 0.0955 | [7] 0.284 | [8] 0.0791

c1ccc(CCCN2CCN(CCOC(c3ccccc3)c3ccccc3)CC2)cc1
inactive: [3] 0.112 | [4] 0.0353 | [7] 0.143 | [8] 0.0218

CC(C)C[C@H]1C(=O)N2CCC[C@H]2[C@]2(O)O[C@](NC(=O)[C@@H]3C=C4c5cccc6[nH]c(Br)c(c56)C[C@H]4N(C)C3)(C(C)C)C(=O)N12
inactive: [1] 0.176 | [2] 0.159 | [3] 0.161 | [4] 0.0412 | [5] 0.154 | [6] 0.233 | [7] 0.0606 | [8] 0.00537

O=C(OC1CCN(CCCl)CC1)C(c1ccccc1)c1ccccc1
inactive: [3] 0.22 | [4] 0.133 | [7] 0.106 | [8] 0.137

CNC(=O)OCC[N+](C)(C)C
inactive: [3] 0.115 | [4] 0.0935 | [7] 0.161 | [8] 0.0965

NCC(=O)c1ccccc1
inactive: [1] 0.0631 | [2] 0.0462 | [5] 0.0615 | [6] -0.00509

CC1(C)C2CC(=O)[C@]3(C)C(CC[C@@]4(C)[C@H](c5ccoc5)OC(=O)[C@H]5O[C@]543)[C@@]2(C)C(=O)C[C@H]1O (some centres not stated)
inactive: [1] 0.131 | [2] 0.0332 | [5] 0.0509 | [6] 0.0814

CP(=O)(O)CCCN
inactive: [3] 0.156 | [4] 0.102 | [7] 0.0718 | [8] 0.0598

C=C(C)C(=O)/C(=C\C(=O)O)OC
inactive: [1] 0.0761 | [2] 0.0593 | [5] 0.138 | [6] 0.0173

COC[C@]12CN(C=O)[C@H]3C4[C@H](OC)[C@H]1C3([C@@H](OC)C[C@H]2O)[C@@H]1C[C@@]2(O)[C@H](OC(=O)c3ccccc3)[C@@H]1[C@]4(OC(C)=O)[C@@H](O)[C@@H]2OC
inactive: [1] 0.0391 | [2] 0.0831 | [5] 0.0466 | [6] 0.114

Cc1o[nH]c(=O)c1CC(N)C(=O)O (configuration not stated)
inactive: [3] 0.115 | [4] 0.0119 | [7] 0.0854 | [8] 0.0272

CCN(CCCl)Cc1ccccc1Br
inactive: [3] 0.131 | [4] 0.125 | [7] 0.11 | [8] 0.0132

COc1ccc(C(CN(C)C)C2(O)CCCCC2)cc1 (configuration not stated)
inactive: [9] 0.1 | [10] 0.0765 | [1] 0.147 | [2] 0.0243 | [11] 0.0583 | [12] 0.00866 | [13] -0.017 | [14] 0.1 | [5] 0.192 | [6] 0.0421 | [15] 0.0478 | [16] 0.0607 | [17] -0.0104 | [18] 0.0525 | [19] 0.0462 | [20] 0.0715

CN(C)C(=O)Oc1cccc([N+](C)(C)C)c1
inactive: [9] 0.0705 | [10] 0.081 | [1] 0.106 | [2] 0.059 | [3] 0.144 | [4] 0.115 | [11] 0.119 | [12] 0.127 | [13] 0.0705 | [14] 0.106 | [5] 0.167 | [6] 0.102 | [7] 0.078 | [8] 0.0692 | [15] 0.0671 | [16] 0.0764 | [17] 0.117 | [18] 0.0235 | [19] 0.103 | [20] 0.0552
